Results reported in paper PMC4336329 (PLoS ONE, 2015).
Screen size: about 310,000 compounds; about 14,000 (4.5%) showed an effect of 50% or more. Effects have a minus sign here. The list shows a part of the results.

Biological target: human ether-à-go-go-related gene (hERG) potassium channel (human, UniProt Q12809)
Assay: primary screen, population patch clamp on CHO cells stably expressing hERG
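Note: peak tail current of the secondary pulse compared with the same well before compound.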

Chain of human ether-à-go-go-related gene (hERG) potassium channel (Q12809 whole entry, looked up): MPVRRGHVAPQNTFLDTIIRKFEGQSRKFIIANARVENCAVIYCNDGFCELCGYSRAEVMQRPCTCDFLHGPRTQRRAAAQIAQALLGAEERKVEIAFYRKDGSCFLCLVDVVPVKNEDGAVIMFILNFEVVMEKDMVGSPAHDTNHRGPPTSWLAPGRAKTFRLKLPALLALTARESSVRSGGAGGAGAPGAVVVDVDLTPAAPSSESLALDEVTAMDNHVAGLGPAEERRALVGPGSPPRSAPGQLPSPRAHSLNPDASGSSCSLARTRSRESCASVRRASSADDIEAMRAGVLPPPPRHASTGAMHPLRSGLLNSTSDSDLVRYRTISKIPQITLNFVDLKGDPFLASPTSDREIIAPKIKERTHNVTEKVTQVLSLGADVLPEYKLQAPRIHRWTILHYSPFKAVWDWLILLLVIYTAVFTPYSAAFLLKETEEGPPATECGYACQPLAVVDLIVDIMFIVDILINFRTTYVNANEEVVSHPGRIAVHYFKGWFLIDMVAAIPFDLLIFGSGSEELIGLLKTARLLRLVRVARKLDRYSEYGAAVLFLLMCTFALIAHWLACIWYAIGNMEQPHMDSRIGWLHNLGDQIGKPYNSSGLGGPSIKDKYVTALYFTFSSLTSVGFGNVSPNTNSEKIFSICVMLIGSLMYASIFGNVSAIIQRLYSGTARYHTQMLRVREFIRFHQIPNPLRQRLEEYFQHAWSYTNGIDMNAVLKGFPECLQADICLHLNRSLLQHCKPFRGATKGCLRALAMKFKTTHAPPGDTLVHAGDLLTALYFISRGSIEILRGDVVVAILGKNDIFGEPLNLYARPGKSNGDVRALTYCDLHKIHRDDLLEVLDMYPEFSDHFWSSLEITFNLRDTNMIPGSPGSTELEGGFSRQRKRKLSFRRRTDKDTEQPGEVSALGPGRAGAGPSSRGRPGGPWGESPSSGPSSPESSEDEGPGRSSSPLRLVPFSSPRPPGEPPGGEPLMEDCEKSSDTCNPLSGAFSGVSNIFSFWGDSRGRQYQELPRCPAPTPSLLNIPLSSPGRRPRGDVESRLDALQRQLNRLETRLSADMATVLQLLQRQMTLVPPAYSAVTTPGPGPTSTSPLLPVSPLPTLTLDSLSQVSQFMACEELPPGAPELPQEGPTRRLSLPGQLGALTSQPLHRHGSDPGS

Compound	hERG current change (%, negative = inhibition) at 10uM [%]
O=C1N/C(=C\c2ccsc2)C(=O)N1Cc1ccc(F)cc1	12.3
CCCCn1nnnc1NCc1cc(OC)c(OC)c(OC)c1	4.78
Cc1ccccc1C1CC(c2ccccc2)Nc2ncnn21 (stereo not drawn)	-6.82
CC(C)c1ccc(S(=O)(=O)Nc2ccc(SC(F)F)cc2)cc1	15.2
C=CCC(C(=O)OC)(C(=O)OC)c1ccc(C(F)(F)F)cc1[N+](=O)[O-]	5.51
CCOc1ccccc1NC1=C(Cl)C(=O)N(c2ccccc2)C1=O	5.08
COc1ccc(CCNC(=O)CCNC(=O)N2CC(=O)Nc3ccccc32)cc1	-5.11
CCOC(=O)CN(C(=O)COc1nc(-c2ccccc2)cc(C)c1C#N)c1ccccc1C	4.99
O=C(O)/C=C/c1ccc2noc(-c3ccccc3)c2c1	9.03
CCCC(=O)Nn1cnc2c(c1=O)C1(CCCCC1)Cc1ccccc1-2	0.281
CC(C)c1nnc(NC(=O)C2CCCN2C(=O)Nc2ccccc2[N+](=O)[O-])s1 (stereo not drawn)	-37.7
Cc1cccc(NC(=O)CSc2nnc(CCC(=O)Nc3ccc(C)c(Cl)c3)n2C)c1	5.44
O=C(CSc1nc2c(c(=O)[nH]1)CCCC2)Nc1ccc(Cl)cc1F	7.95
CC1(C)Oc2ccc(NC(=O)c3ccco3)cc2O1	-6.17
CCOC(=O)Cc1csc(NC(=O)CCc2ccccc2)n1	-2.42
Cc1cc(C(=O)NC2CC(C)(C)Cc3c2cnn3-c2cccc(F)c2)nn1C (stereo not drawn)	-2.79
CCOC(=O)c1sc(NC(=O)c2ccc(S(=O)(=O)N(C)C)cc2)nc1C	18.8
OCC1(Cc2ccccc2)CCCN(Cc2cnn(-c3ccccc3)c2)C1 (stereo not drawn)	-59.4
O=C(Cc1ccccc1)Nc1ccc(Br)c(Cl)c1	1.44
COc1cc(-c2cc(N3C(=O)Nc4ccccc4N3O)n[nH]2)cc(OC)c1OC	3.55
O=C(C1=C(O)C(=O)N(Cc2ccco2)C1c1cccnc1)c1cc2ccccc2o1 (stereo not drawn)	13.4
CCOc1cccc2cc(C(=O)N3CCc4ccccc43)c(=O)oc12	-2.43

Compound	hERG current change (%, negative = inhibition) at 10uM [%]
Cc1nc2c(-c3ccc(F)cc3)c(C)nn2c(C)c1CCC(=O)N1CCOCC1	-53.3
O=C(O/N=C1\C(=O)N(c2ccccc2)c2ccccc21)C1CC1	15.7
O=C(COC(=O)CSc1ccc([N+](=O)[O-])cc1)NCCCc1ccccc1	4.5
Cc1ccc(NC(=O)C(C)c2ccc(-c3ccccc3)c(F)c2)cc1 (stereo not drawn)	14.4
Cc1cc(C(=O)CN2CCC(C)CC2)c(C)n1-c1ccc(F)cc1	-25.5
O=C1Nc2ccccc2S/C1=C/c1cccs1	22.2
COc1ccc(OCC(=O)Nc2cccc(-c3nc4ccccc4[nH]3)c2)cc1	-55.9
CCOC(=O)Nc1ccc2c(COC(=O)CNS(=O)(=O)c3ccc(NC(C)=O)cc3)cc(=O)oc2c1	5.68
O=C(N/N=C/c1cccnc1)c1ccc(F)cc1	3.54
COc1ccc(NC(=O)CCC(=O)N/N=C/c2ccncc2)cc1	3.23
CSc1nnc(C)c(=O)n1COC(=O)c1ccc(S(=O)(=O)N2CCOCC2)cc1	-8.06
Cc1cc(C)nc(SCCn2c(N3CCOCC3)nc3c2c(=O)[nH]c(=O)n3C)n1	21.5
O=C(c1sc2ccccc2c1Cl)N1CCN(CCc2ccccn2)CC1	-60.5
COc1ccc(-c2nc3ccccc3c(=O)n2CCOc2cccc(C)c2C)cc1	15
COC(=O)CC/C(=N/Nc1ccc(Cl)c(Cl)c1)C(=O)OC	13.6
Cc1ccc(S(=O)(=O)N/N=C/c2ccccc2O)cc1[N+](=O)[O-]	2.59
CCN(CC)S(=O)(=O)N1CCC(C(=O)NCc2ccc(C)cc2)CC1	-16.9
COc1ccc(/C=C2\COc3ccccc3C2=O)cc1OC	-17.1
CCCC(=O)Nc1nc2ccc(C(=O)OCC)cc2s1	11.4
COc1cc(NS(=O)(=O)c2ccc(NS(=O)(=O)c3ccc(NC(C)=O)cc3)cc2)nc(OC)n1	22.7
CC1Cc2ccccc2N1C(=O)COC(=O)c1c2c(nc3ccccc13)CCCCC2 (stereo not drawn)	6.67
Cc1ccn2c(C(=O)N/N=C\c3cccs3)c(C)nc2c1	-7.56

Compound	hERG current change (%, negative = inhibition) at 10uM [%]
CC(Nc1cccc2ccccc12)C(=O)N/N=C/c1ccccn1 (stereo not drawn)	10.4
S=C1NCCOCCOCCOCCNC(=S)N2CCOCCOCCN1CCOCCOCC2	13.6
FC(F)(F)c1cc(Sc2ccccc2)nc(-c2ccccn2)n1	-19.3
Cc1cccc(NC(=S)N2CCC(N(C)CC3CCCO3)CC2)c1 (stereo not drawn)	-32.3
CCCCC(c1nnnn1C1CCCC1)N1CCN(C(=O)c2ccco2)CC1.Cl (stereo not drawn)	-47
CN(C)c1nc(N)c([N+](=O)[O-])c(NCCO)n1	0.948
COc1ccccc1NC(=O)C1CC(=O)N(c2ccc(F)cc2)C1 (stereo not drawn)	19.5
COc1ccccc1C(=O)NC(=S)Nc1cccnc1Cl	-12.7
Brc1cccc(-c2nc3cccnc3nc2-c2cccc(Br)c2)c1	2.17
COc1ccccc1NC(=O)COc1ccc(-c2nn(C)c(=O)c3ccccc23)cc1	-26.3
CCOCCn1c(SCc2c(F)cccc2Cl)nc2c1c(=O)[nH]c(=O)n2C	-3.53
COc1ccc(-c2cc(=O)oc3cc(OCC(=O)N[C@@H](Cc4c[nH]c5ccccc45)C(=O)O)ccc23)cc1	-4.79
CC(=O)Nc1ccc(NC(=O)C(C)Sc2n[nH]c(-c3cccs3)n2)cc1 (stereo not drawn)	-12.3
CNC(=O)O/N=C/c1nn(C(=O)C(C)(C)C)cc1Br	-4.16
CC(C)CN(C1CCS(=O)(=O)C1)S(=O)(=O)c1ccc2ccccc2c1 (stereo not drawn)	-18.2
N=C1/C(=C\c2coc3ccccc3c2=O)C(=O)N=C2SC(c3ccncc3)=NN12	-59
COc1ccccc1C1C(C(N)=O)=C(C)Nc2nc(-c3ccccc3Cl)nn21 (stereo not drawn)	5.89
CCOC(=O)c1ccccc1NC(=O)CSc1nc2[nH]ncc2c(=O)[nH]1	-2.32
COc1cc(/C=N/N(C)C)ccc1OC(=O)c1cccs1	2.86
OCCCc1nc2n(n1)C(c1ccccc1)C=C(c1ccccc1)N2 (stereo not drawn)	-17.3
CC(=O)N1CCN(c2ccc(NC(=O)c3ccc(C)cc3)cc2)CC1	5.89
O=C(CNC(=O)c1ccc2c(c1)OCO2)Nc1cccc(Br)c1	9.59

Compound	hERG current change (%, negative = inhibition) at 10uM [%]
Cc1ccc(C(=O)NCCc2nnc3ccc(SCC(=O)Nc4ccccc4F)nn23)cc1	-12.7
O=C(CN1c2ccccc2Sc2ccccc21)NNC(=O)Nc1ccc(Cl)cc1	9.73
CCOc1ccc(-c2nc3c(s2)CCc2onc(-c4ccc(OC)cc4)c2-3)cc1	8.95
CCc1cc(-c2n[nH]c(C)c2-c2nc3ccccc3s2)c(O)cc1OCC(=O)NN	-7.81
CCOCc1c(C(=O)Nc2ccc(OC)nc2)oc2ccccc12	-17.9
Cc1ccc(S(=O)(=O)/N=C/c2c(O)ccc3ccccc23)cc1	7.66
O=C(Nc1ccccc1N1CCOCC1)c1cc(Br)c(Br)s1	-2.44
COc1ccc(OCC(=O)Nc2ccc3c(c2)nc(CCN2CCN(C)CC2)n3C)cc1	-8.47
Cc1ccnc(NC(=O)Cn2c(=O)oc3cc(S(=O)(=O)N4CCCC4)ccc32)c1	-1.79
CNc1nc(OCCNC(=O)Nc2ccccc2)nc(N2CCOCC2)n1	23.8
CC(C)=NNc1cc([N+](=O)[O-])cc2c1C(=O)N(C)S2=O (stereo not drawn)	14.8
Cc1nc(-c2c(C(=O)NNC(=O)Nc3c(C)cccc3C)noc2C)cs1	9.65
COc1ccc(NC(=O)NCCCN2CCCC2=O)c(OC)c1	-4.04
O=C(Nc1ccc(CN2CCS(=O)(=O)CC2)cc1)c1ccc(Cl)cc1	-18.8
CCN(Cc1ccncc1)C(=O)c1cccc(S(=O)(=O)N2CCOCC2)c1	-9.65
CCCCn1c(=O)c(C(=O)c2ccccc2)nc2ccccc21	-30.4
CCN(Cc1ccncc1)Cc1ccc(OC)cc1OC.O=C(O)C(=O)O	-51.4
Cc1ccc(C)c(CN2CCCN(C(=O)Cn3ncc4c3-c3ccccc3OC4)C2)c1	-2.82
COc1cc(NC(=O)c2ccc(S(=O)(=O)N(C)C)cc2)cc(OC)c1OC	-4.23
Cc1cc(=O)n(CCCc2ccccc2)[nH]1	12.8
Cc1nc(NC(=O)C2CC2)sc1C	-8.88
